Measured values from the supplement of paper PMC8728848.
Some of the results follow.

Experiments:
Assay in all cases: glycan array binding signal (z-score within array); higher = stronger binding
Conditions in all cases: glycan notation: IUPAC condensed, linker removed
Gal3S(b1-4)GlcNAc6S = molecular target: Gal3S(b1-4)GlcNAc6S
In short: (§1)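 The Consortium for Functional Glycomics database supplied 3228 glycan arrays, of which those lacking an available protein sequence were dropped. The binding signal, a within-array Z-score, was averaged across arrays of the same protein sequence and across linkers. Negative scores can be read as non-binding.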

[1] = molecular target: Gal3S(b1-4)[Fuc(a1-3)]Glc
In short: as §1

[2] = molecular target: Gal3S(b1-4)[Fuc(a1-3)]Glc6S
In short: as §1

[3] = molecular target: Gal3S(b1-4)[Fuc(a1-3)]GlcNAc
In short: as §1

[4] = molecular target: Gal3S(b1-4)[Fuc(a1-3)]GlcNAc6S
In short: as §1

Gal3S4S(b1-4)GlcNAc = molecular target: Gal3S4S(b1-4)GlcNAc
In short: as §1

Gal3S6S(b1-4)GlcNAc = molecular target: Gal3S6S(b1-4)GlcNAc
In short: as §1

Gal3S6S(b1-4)GlcNAc6S = molecular target: Gal3S6S(b1-4)GlcNAc6S
In short: as §1

Gal4S(b1-4)GlcNAc = molecular target: Gal4S(b1-4)GlcNAc
In short: as §1

Gal4S6S(b1-4)GlcNAc = molecular target: Gal4S6S(b1-4)GlcNAc
In short: as §1

Gal6P(b1-4)GlcNAc = molecular target: Gal6P(b1-4)GlcNAc
In short: as §1

Gal6S(b1-3)GlcNAc = molecular target: Gal6S(b1-3)GlcNAc
In short: as §1

Gal6S(b1-3)GlcNAc6S = molecular target: Gal6S(b1-3)GlcNAc6S
In short: as §1

Gal6S(b1-4)Glc = molecular target: Gal6S(b1-4)Glc
In short: as §1

Gal6S(b1-4)Glc6S = molecular target: Gal6S(b1-4)Glc6S
In short: as §1

Gal6S(b1-4)GlcNAc = molecular target: Gal6S(b1-4)GlcNAc
In short: as §1

Gal6S(b1-4)GlcNAc6S = molecular target: Gal6S(b1-4)GlcNAc6S
In short: as §1

GalNAc(a1-3)Gal = molecular target: GalNAc(a1-3)Gal
In short: as §1

GalNAc(a1-3)GalNAc = molecular target: GalNAc(a1-3)GalNAc
In short: as §1

[5] = molecular target: GalNAc(a1-3)GalNAc(a1-3)Gal(a1-4)Gal(b1-4)GlcNAc
In short: as §1

[6] = molecular target: GalNAc(a1-3)GalNAc(b1-3)Gal(a1-4)Gal(b1-4)Glc
In short: as §1

[7] = molecular target: GalNAc(a1-3)GalNAc(b1-3)Gal(a1-4)Gal(b1-4)GlcNAc
In short: as §1

GalNAc(b1-3)Gal = molecular target: GalNAc(b1-3)Gal
In short: as §1

[8] = molecular target: GalNAc(b1-3)Gal(a1-4)Gal(b1-4)GlcNAc
In short: as §1

[9] = molecular target: GalNAc(b1-3)Gal(a1-4)Gal(b1-4)GlcNAc(b1-3)Gal(b1-4)Glc
In short: as §1

[10] = molecular target: GalNAc(b1-3)Gal(a1-6)Gal(b1-4)Glc
In short: as §1

GalNAc(b1-3)GalNAc = molecular target: GalNAc(b1-3)GalNAc
In short: as §1

GalNAc(b1-3)GlcNAc = molecular target: GalNAc(b1-3)GlcNAc
In short: as §1

GalNAc(b1-4)Gal(b1-4)Glc = molecular target: GalNAc(b1-4)Gal(b1-4)Glc
In short: as §1

GalNAc(b1-4)GlcNAc = molecular target: GalNAc(b1-4)GlcNAc
In short: as §1

[11] = molecular target: GalNAc(b1-4)GlcNAc(b1-2)Man
In short: as §1

[12] = molecular target: GalNAc(b1-4)GlcNAc(b1-2)Man(a1-3)[GalNAc(b1-4)GlcNAc(b1-2)Man(a1-6)]Man(b1-4)GlcNAc(b1-4)GlcNAc
In short: as §1

[13] = molecular target: GalNAc(b1-4)GlcNAc(b1-3)GalNAc(b1-4)GlcNAc
In short: as §1

GalNAc(b1-4)GlcNAc6S = molecular target: GalNAc(b1-4)GlcNAc6S
In short: as §1

GalNAc(b1-6)GalNAc = molecular target: GalNAc(b1-6)GalNAc
In short: as §1

GalNAc3S(b1-4)GlcNAc = molecular target: GalNAc3S(b1-4)GlcNAc
In short: as §1

GalNAc3S(b1-4)GlcNAc3S = molecular target: GalNAc3S(b1-4)GlcNAc3S
In short: as §1

[14] = molecular target: GalNAc3S(b1-4)[Fuc(a1-3)]GlcNAc
In short: as §1

GalNAc4S6S(b1-4)GlcNAc = molecular target: GalNAc4S6S(b1-4)GlcNAc
In short: as §1

GalNAc6S(b1-4)GlcNAc = molecular target: GalNAc6S(b1-4)GlcNAc
In short: as §1

Glc(a1-4)Glc = molecular target: Glc(a1-4)Glc
In short: as §1

[15] = molecular target: Glc(a1-4)Glc(a1-4)Glc(a1-4)Glc
In short: as §1

Glc(a1-6)Glc(a1-6)Glc = molecular target: Glc(a1-6)Glc(a1-6)Glc
In short: as §1

[16] = molecular target: Glc(a1-6)Glc(a1-6)Glc(a1-6)Glc
In short: as §1

Glc(b1-4)Glc = molecular target: Glc(b1-4)Glc
In short: as §1

B1: rCNL (Clitocybe nebularis), B2ZRS9 (protein)
chain: SITPGTYNITNVAYTNRLIDLTGSNPAENTLIIGHHLNKTPSGYGNQQWTLVQLPHTTIYTMQAVNPQSYVRVRDDNLVDGAALVGSQQPTPVSIESAGNSGQFRIKIPNLGLALTLPSDANSTPIVLGEVDETSTNQLWAFESVSAV
glycan array binding signal (z-score) (Gal3S(b1-4)GlcNAc6S): 0.003
glycan array binding signal (z-score) [1]: -0.354
glycan array binding signal (z-score) [2]: -0.277
glycan array binding signal (z-score) [3]: -0.227
glycan array binding signal (z-score) [4]: -0.22
glycan array binding signal (z-score) (Gal3S4S(b1-4)GlcNAc): -0.218
glycan array binding signal (z-score) (Gal3S6S(b1-4)GlcNAc): -0.299
glycan array binding signal (z-score) (Gal3S6S(b1-4)GlcNAc6S): -0.283
glycan array binding signal (z-score) (Gal4S(b1-4)GlcNAc): -0.298
glycan array binding signal (z-score) (Gal4S6S(b1-4)GlcNAc): -0.304
glycan array binding signal (z-score) (Gal6P(b1-4)GlcNAc): -0.219
glycan array binding signal (z-score) (Gal6S(b1-3)GlcNAc): -0.224
glycan array binding signal (z-score) (Gal6S(b1-3)GlcNAc6S): -0.215
glycan array binding signal (z-score) (Gal6S(b1-4)Glc): -0.225
glycan array binding signal (z-score) (Gal6S(b1-4)Glc6S): -0.282
glycan array binding signal (z-score) (Gal6S(b1-4)GlcNAc): -0.301
glycan array binding signal (z-score) (Gal6S(b1-4)GlcNAc6S): 0.207
glycan array binding signal (z-score) (GalNAc(a1-3)Gal): 1.42
glycan array binding signal (z-score) (GalNAc(a1-3)GalNAc): 0.148
glycan array binding signal (z-score) [5]: 0.649
glycan array binding signal (z-score) [6]: -0.001
glycan array binding signal (z-score) [7]: 0.16
glycan array binding signal (z-score) (GalNAc(b1-3)Gal): 1.25
glycan array binding signal (z-score) [8]: 1.05
glycan array binding signal (z-score) [9]: 0.825
glycan array binding signal (z-score) [10]: 1.36
glycan array binding signal (z-score) (GalNAc(b1-3)GalNAc): -0.309
glycan array binding signal (z-score) (GalNAc(b1-3)GlcNAc): 4.24
glycan array binding signal (z-score) (GalNAc(b1-4)Gal(b1-4)Glc): -0.217
glycan array binding signal (z-score) (GalNAc(b1-4)GlcNAc): 6.23
glycan array binding signal (z-score) [11]: 6.09
glycan array binding signal (z-score) [12]: 0.998
glycan array binding signal (z-score) [13]: 7.74
glycan array binding signal (z-score) (GalNAc(b1-4)GlcNAc6S): 4.96
glycan array binding signal (z-score) (GalNAc(b1-6)GalNAc): -0.227
glycan array binding signal (z-score) (GalNAc3S(b1-4)GlcNAc): -0.223
glycan array binding signal (z-score) (GalNAc3S(b1-4)GlcNAc3S): -0.224
glycan array binding signal (z-score) [14]: -0.22
glycan array binding signal (z-score) (GalNAc4S6S(b1-4)GlcNAc): -0.228
glycan array binding signal (z-score) (GalNAc6S(b1-4)GlcNAc): 7.28
glycan array binding signal (z-score) (Glc(a1-4)Glc): -0.308
glycan array binding signal (z-score) [15]: -0.217
glycan array binding signal (z-score) (Glc(a1-6)Glc(a1-6)Glc): -0.288
glycan array binding signal (z-score) [16]: -0.213
glycan array binding signal (z-score) (Glc(b1-4)Glc): -0.31
